# Assay results taken from PMC3794922.
# Protein sequences, listed by entry. Tags and fused reporters are not part of them.
# UniProt Q96524: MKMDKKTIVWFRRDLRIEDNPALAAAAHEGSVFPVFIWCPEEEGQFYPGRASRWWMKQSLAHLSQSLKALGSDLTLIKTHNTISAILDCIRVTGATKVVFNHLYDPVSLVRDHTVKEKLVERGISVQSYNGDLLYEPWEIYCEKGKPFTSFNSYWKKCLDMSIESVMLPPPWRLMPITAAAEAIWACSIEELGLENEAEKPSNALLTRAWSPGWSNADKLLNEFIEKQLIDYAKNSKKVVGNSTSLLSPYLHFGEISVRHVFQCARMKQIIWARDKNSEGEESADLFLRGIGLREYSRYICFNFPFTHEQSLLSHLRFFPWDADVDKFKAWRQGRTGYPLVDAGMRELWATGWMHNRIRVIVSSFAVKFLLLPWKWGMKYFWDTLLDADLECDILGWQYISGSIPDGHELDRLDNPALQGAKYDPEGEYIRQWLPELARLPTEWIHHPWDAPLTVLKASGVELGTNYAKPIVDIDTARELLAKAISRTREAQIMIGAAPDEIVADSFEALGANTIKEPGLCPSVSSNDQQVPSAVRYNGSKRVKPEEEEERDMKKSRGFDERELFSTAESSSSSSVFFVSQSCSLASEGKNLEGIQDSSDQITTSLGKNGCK
# These are yes or no findings as the source states them, for the method shown. Binding seen in cells or lysates may run through a third protein. Some entries that bind do so weakly or less than the wild type. For some of these results: Tags and fused reporters may be left off the sequences shown.
# T1: cCFP–CIB1 (C-terminal half of CFP fused to CIB1) (Arabidopsis thaliana) (UniProt Q8GY61)
# T1 sequence: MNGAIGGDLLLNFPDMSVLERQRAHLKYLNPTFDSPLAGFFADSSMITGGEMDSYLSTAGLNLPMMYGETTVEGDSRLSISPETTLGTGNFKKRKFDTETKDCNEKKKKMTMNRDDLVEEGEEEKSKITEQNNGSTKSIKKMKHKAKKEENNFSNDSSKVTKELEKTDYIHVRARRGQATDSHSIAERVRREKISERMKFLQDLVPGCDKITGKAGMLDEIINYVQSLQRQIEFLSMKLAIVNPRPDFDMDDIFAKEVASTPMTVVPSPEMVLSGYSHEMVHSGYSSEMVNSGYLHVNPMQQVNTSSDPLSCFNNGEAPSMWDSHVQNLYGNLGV
# Assays:
# [1] = target: Arabidopsis thaliana cryptochrome 2 (CRY2), expressed and purified from insect cells (Arabidopsis thaliana) (UniProt Q96524); test: pull-down; CRY2 purified from insect cells incubated with S35-labelled CIB proteins from in vitro transcription/translation (TnT, Promega); complexes pulled down with Ni-affinity beads; only the target purified
# [2] = target: CRY2, endogenous in Arabidopsis seedlings (Arabidopsis thaliana (endogenous in seedlings)) (UniProt Q96524); test: co-IP; 12-day-old 35S::Myc-CIB5 seedlings grown in continuous red light, MG132 for 3 hour, exposed to white light or blue light (20 µmol m-2 s-1) for 20 min; anti-CRY2-IgG-coupled protein-A Sepharose, 4°C, 20 mM HEPES pH 7.5, 40 mM KCl, 1 mM EDTA, 1% Triton X-100; blot with anti-Myc
# [3] = target: CRY2, endogenous in Arabidopsis seedlings (Arabidopsis thaliana (endogenous in seedlings)) (UniProt Q96524); test: co-IP; 12-day-old 35S::Myc-CIB5 seedlings grown in continuous red light, MG132 for 3 hour, exposed to red light for 20 min; anti-CRY2-IgG-coupled protein-A Sepharose, 4°C; blot with anti-Myc
# [4] = target: T1, cCFP–CIB1 (C-terminal half of CFP fused to CIB1) (Arabidopsis thaliana); test: split reporter; BiFC with cCFP and nYFP fusions co-expressed in N. benthamiana leaf epidermal cells by Agrobacterium infiltration; plants left in continuous white light for 3 days
# [5] = target: cCFP–CRY2 (C-terminal half of CFP fused to CRY2) (Arabidopsis thaliana) (UniProt Q96524); test: as above
Binder,binding [1],binding [4],further results
"CIB2 (At5g48560), S35-labelled, in vitro translated (protein, UniProt Q9FJL4 1-498, S35 labelled) MDNELFMNTEFPPPPEMATHFEHQQSSSSAMMLNWALMDPNPHQDSSFLWEKSTEQQQQQSIFDSALSSLVSSPTPSNSNFSGGGGDGFLIRELIGKLGNIGNNNNNSGEIYGTPMSRSASCYATPMSSPPPPTNSNSQMMMNRTTPLTEFSADPGFAERAARFSCFGSRSFNGRTNTNLPINNGNNMVNNSGKLTRVSSTPALKALVSPEVTPGGEFSRKRKSVPKGKSKENPISTASPSPSFSKTAEKNGGKGGSKSSEEKGGKRRREEEDDEEEEGEGEGNKSNNTKPPEPPKDYIHVRARRGQATDSHSLAERVRREKIGERMKLLQDLVPGCNKVTGKALMLDEIINYVQSLQRQVEFLSMKLSSVNDTRLDFNVDALVSKDVMIPSSNNRLHEEGLQSKSSSHHHQQQLNIYNNNSQLLPNISSNNMMLQSPMNSLETSTLARSFTHLPTLTQFTDSISQYQMFSEEDLQSIVGMGVAENPNNESQHMKIEL",binds,,
"Myc-CIB5, in transgenic Arabidopsis seedlings (35S::MycCIB5) (protein, UniProt Q9C670 1-390) MSDKDEFAAKKKDLVNTPVDLYPPENPMLGPSPMMDSFRETLWHDGGFNVHTDADTSFRGNNNIDIPLEMGWNMAQFPADSGFIERAAKFSFFGCGEMMMNQQQSSLGVPDSTGLFLQDTQIPSGSKLDNGPLTDASKLVKERSINNVSEDSQSSGGNGHDDAKCGQTSSKGFSSKKRKRIGKDCEEEEDKKQKDEQSPTSNANKTNSEKQPSDSLKDGYIHMRARRGQATNSHSLAERVRREKISERMKFLQDLVPGCDKVTGKAVMLDEIINYVQSLQCQIEFLSMKLSAVNPVLDFNLESLLAKDALQSSAPTFPHNMSMLYPPVSYLSQTGFMQPNISSMSLLSGGLKRQETHGYESDHHNLVHMNHETGTAPDHEDTTADMKVEP",,,binding [2]: binds; binding [3]: no binding (condition: red light (no blue light))
"nYFP–CIB1 (N-terminal half of YFP fused to CIB1) (protein, UniProt Q8GY61 1-335) MNGAIGGDLLLNFPDMSVLERQRAHLKYLNPTFDSPLAGFFADSSMITGGEMDSYLSTAGLNLPMMYGETTVEGDSRLSISPETTLGTGNFKKRKFDTETKDCNEKKKKMTMNRDDLVEEGEEEKSKITEQNNGSTKSIKKMKHKAKKEENNFSNDSSKVTKELEKTDYIHVRARRGQATDSHSIAERVRREKISERMKFLQDLVPGCDKITGKAGMLDEIINYVQSLQRQIEFLSMKLAIVNPRPDFDMDDIFAKEVASTPMTVVPSPEMVLSGYSHEMVHSGYSSEMVNSGYLHVNPMQQVNTSSDPLSCFNNGEAPSMWDSHVQNLYGNLGV",,binds,
"nYFP-CIB2 (N-terminal half of YFP fused to CIB2) (protein, UniProt Q9FJL4 1-498) MDNELFMNTEFPPPPEMATHFEHQQSSSSAMMLNWALMDPNPHQDSSFLWEKSTEQQQQQSIFDSALSSLVSSPTPSNSNFSGGGGDGFLIRELIGKLGNIGNNNNNSGEIYGTPMSRSASCYATPMSSPPPPTNSNSQMMMNRTTPLTEFSADPGFAERAARFSCFGSRSFNGRTNTNLPINNGNNMVNNSGKLTRVSSTPALKALVSPEVTPGGEFSRKRKSVPKGKSKENPISTASPSPSFSKTAEKNGGKGGSKSSEEKGGKRRREEEDDEEEEGEGEGNKSNNTKPPEPPKDYIHVRARRGQATDSHSLAERVRREKIGERMKLLQDLVPGCNKVTGKALMLDEIINYVQSLQRQVEFLSMKLSSVNDTRLDFNVDALVSKDVMIPSSNNRLHEEGLQSKSSSHHHQQQLNIYNNNSQLLPNISSNNMMLQSPMNSLETSTLARSFTHLPTLTQFTDSISQYQMFSEEDLQSIVGMGVAENPNNESQHMKIEL",,binds,binding [5]: binds
"nYFP-CIB4 (N-terminal half of YFP fused to CIB4) (protein, UniProt Q6NKN9 1-366) MGGESNEGGEMGFKHGDDESGGISRVGITSMPLYAKADPFFSSADWDPVVNAAAAGFSSSHYHPSMAMDNPGMSCFSHYQPGSVSGFAADMPASLLPFGDCGGGQIGHFLGSDKKGERLIRAGESSHEDHHQVSDDAVLGASPVGKRRLPEAESQWNKKAVEEFQEDPQRGNDQSQKKHKNDQSKETVNKESSQSEEAPKENYIHMRARRGQATNSHSLAERVRREKISERMRLLQELVPGCNKITGKAVMLDEIINYVQSLQQQVEFLSMKLATVNPEINIDIDRILAKDLLQSRDRNTPTLGLNPFAGFQGNIPNLSATTNPQYNPLPQTTLESELQNLYQMGFVSNPSTMSSFSPNGRLKPEL",,binds,
"nYFP-CIB5 (N-terminal half of YFP fused to CIB5) (protein, UniProt Q9C670 1-390) MSDKDEFAAKKKDLVNTPVDLYPPENPMLGPSPMMDSFRETLWHDGGFNVHTDADTSFRGNNNIDIPLEMGWNMAQFPADSGFIERAAKFSFFGCGEMMMNQQQSSLGVPDSTGLFLQDTQIPSGSKLDNGPLTDASKLVKERSINNVSEDSQSSGGNGHDDAKCGQTSSKGFSSKKRKRIGKDCEEEEDKKQKDEQSPTSNANKTNSEKQPSDSLKDGYIHMRARRGQATNSHSLAERVRREKISERMKFLQDLVPGCDKVTGKAVMLDEIINYVQSLQCQIEFLSMKLSAVNPVLDFNLESLLAKDALQSSAPTFPHNMSMLYPPVSYLSQTGFMQPNISSMSLLSGGLKRQETHGYESDHHNLVHMNHETGTAPDHEDTTADMKVEP",,binds,binding [5]: binds
"CIB3 (At3g07340), S35-labelled, in vitro translated (protein, UniProt Q9SRT2 1-456, S35 labelled) MENELFMNAGVSHPPVMTSPSSSSAMLKWVSMETQPVDPSLSRNLFWEKSTEQSIFDSALSSLVSSPTPSNSNFSVGGVGGENVIMRELIGKLGNIGDIYGITASNGNSCYATPMSSPPPGSMMETKTTTPMAELSGDPGFAERAARFSCFGSRSFNSRTNSPFPINNEPPITTNEKMPRVSSSPVFKPLASHVPAGESSGELSRKRKTKSKQNSPSAVSSSKEIEEKEDSDPKRCKKSEENGDKTKSIDPYKDYIHVRARRGQATDSHSLAERVRREKISERMKLLQDLVPGCNKVTGKALMLDEIINYVQSLQRQVEFLSMKLSSVNTRLDFNMDALLSKDIFPSSNNLMHHQQVLQLDSSAETLLGDHHNKNLQLNPDISSNNVINPLETSETRSFISHLPTLAHFTDSISQYSTFSEDDLHSIIHMGFAQNRLQELNQGSSNQVPSHMKAEL",binds,,
"CIB5 (At1g26260), S35-labelled, in vitro translated (protein, UniProt Q9C670 1-390, S35 labelled) MSDKDEFAAKKKDLVNTPVDLYPPENPMLGPSPMMDSFRETLWHDGGFNVHTDADTSFRGNNNIDIPLEMGWNMAQFPADSGFIERAAKFSFFGCGEMMMNQQQSSLGVPDSTGLFLQDTQIPSGSKLDNGPLTDASKLVKERSINNVSEDSQSSGGNGHDDAKCGQTSSKGFSSKKRKRIGKDCEEEEDKKQKDEQSPTSNANKTNSEKQPSDSLKDGYIHMRARRGQATNSHSLAERVRREKISERMKFLQDLVPGCDKVTGKAVMLDEIINYVQSLQCQIEFLSMKLSAVNPVLDFNLESLLAKDALQSSAPTFPHNMSMLYPPVSYLSQTGFMQPNISSMSLLSGGLKRQETHGYESDHHNLVHMNHETGTAPDHEDTTADMKVEP",binds,,
"CIL1 (At1g68920; CIB1 Like protein), S35-labelled, in vitro translated (protein, UniProt Q9CAA9 1-486, S35 labelled) MDLSAKDEFSAEKRNPDNYDSVNNPSGDWRVDSYPSENLISAGPASCSPSQMMDSFGQTLWYDPTSVQAVGYAGFNGGNASSSSFRGSIDRSLEMGWNLPNLLPPKGNGLFLPNASSFLPPSMAQFPADSGFIERAARFSLFSGGNFSDMVNQPLGNSEAIGLFLQGGGTMQGQCQSNELNVGEPHNDVSVAVKESTVRSSEQAKPNVPGSGNVSEDTQSSGGNGQKGRETSSNTKKRKRNGQKNSEAAQSHRSQQSEEEPDNNGDEKRNDEQSPNSPGKKSNSGKQQGKQSSDPPKDGYIHVRARRGQATNSHSLAERVRREKISERMKFLQDLVPGCNKVTGKAVMLDEIINYVQSLQRQVEFLSMKLATVNPQMDFNLEGLLAKDALQLRAGSSSTTPFPPNMSMAYPPLPHGFMQQTLSSIGRTITSPLSPMNGGFKRQETNGWEGDLQNVIHINYGAGDVTPDPQAAATASLPAANMKVEP",no binding,,
"CIL2 (At3g23690; CIB1 Like protein), S35-labelled, in vitro translated (protein, UniProt Q9LK48 1-371, S35 labelled) MNMDKETEQTLNYLPLGQSDPFGNGNEGTIGDFLGRYCNNPQEISPLTLQSFSLNSQISENFPISGGIRFPPYPGQFGSDREFGSQPTTQESNKSSLLDPDSVSDRVHTTKSNSRKRKSIPSGNGKESPASSSLTASNSKVSGENGGSKGGKRSKQDVAGSSKNGVEKCDSKGDNKDDAKPPEAPKDYIHVRARRGQATDSHSLAERARREKISERMTLLQDLVPGCNRITGKAVMLDEIINYVQSLQRQVEFLSMKLATVNPRMEFNANASLSTEMIQPGESLTQSLYAMACSEQRLPSAYYSLGKNMPRFSDTQFPSNDGFVHTETPGFWENNDLQSIVQMGFGDILQQQSNNNNNNCSEPTLQMKLEP",no binding,,
